Here are results for 22 molecules from PMC12136788.

The other results are listed elsewhere or left out.

B1: chr8:96261867:96261970:+|5pUTR|ENSG00000156471|unk|total|mutant (ssRNA)
RNA: GGGAGUUCUACAGUCCGACGAUCUCCUUCCCUCUGCUCCCAGCCUUUGCUGGGCGCCAGACCCGGCUUUGCCGUCCGGCUAUCCGCCUACUGUGGCCCGUCACCCCCGGGGUCCCGGCCUUCUCGGGCUGGGGCCGCCGCCACCAACAGAGGAUUGAGCAUCA
B2: ENSG00000107863:be:win_101|CDS|ENSG00000107863|bound_else_gene|NA|bound_elsewhere_windowed (ssRNA)
RNA: GGGAGUUCUACAGUCCGACGAUCCUGUAUCACUGUCUGAAGAUGAAACAUUCUCCUGGCCAGGUCCCAAAACAGUUACGUUGAAAAGAACAUCUCAAGGCUUUGGUUUUACAUUAAGACAUUUUAUUGUUUAUCCCCCAGAGUCAACAGAGGAUUGAGCAUCA
B3: chr10:29523788:29523889:-|CDS|ENSG00000197321|unk|FALSE|unique (ssRNA)
RNA: GGGAGUUCUACAGUCCGACGAUCAAUGCAAGUGCCACUGACUAUAAGUUUUCUUCUUCAAUAGAAAAUUCGGACUCUCCAGUUAGAAGCAUUCUGAAAUCGCAAGCUUGGCAGCCUUUGGUAGAGGGUAGCGAGAACAAGGGACAACAGAGGAUUGAGCAUCA
B4: chr8:97276997:97277102:-|CDS|ENSG00000180543|unk|FALSE|unique (ssRNA)
RNA: GGGAGUUCUACAGUCCGACGAUCAUCCCGGGCUUCUGGGGGCAAGCAUUUCAGAACCAUCCCCAGCUAGCAUCCUUUCUGAAUAGCCAAGAGAAAGAGGUACUGAGCUACUUAAACAGCUUGGAAGUGGAAGAGCUCGGCCUUCAACAGAGGAUUGAGCAUCA
B5: chrX:120627021:120627135:-|CDS|ENSG00000171155|unk|FALSE|unique (ssRNA)
RNA: GGGAGUUCUACAGUCCGACGAUCUUGAAGGGUGUGAUGCUUGGAAGCAUUUUCUGUGCUUUGAUCACUAUGCUAGGACACAUUAGGAUUGGUCAUGGAAAUAGAAUGCACCACCAUGAGCAUCAUCACCUACAAGCUCCUAACCAACAGAGGAUUGAGCAUCA
B6: ENSG00000197321:stop:overlap|stop_codon|ENSG00000197321|stop_codon|NA|stop_codon (ssRNA)
RNA: GGGAGUUCUACAGUCCGACGAUCAGUUCCAUGAGGGGGAUGCCUAUGUGGUCAAGUGGAAGUUCAUGGUGAGCACGGCAGGUUAGUGAGCGCUUGUGGUUUUUUCCAGCUGAAAGAGGCUGGCCCGGCAGCCCUGCGGGAGCCCAACAGAGGAUUGAGCAUCA
B7: ENSG00000124766:be:win_2451|3pUTR|ENSG00000124766|bound_else_gene|NA|bound_elsewhere_windowed (ssRNA)
RNA: GGGAGUUCUACAGUCCGACGAUCAAAAAAGAAAAAAAAAAGAUUUUUUUCUUCUCUUAAUCGGAAUCGUGAUGGUGUUGGAUUAUUUCAAUGGUGGGGUUAAUAUAGCAUGUUAUCCUGUCUAUCUUUUAAAGAUUUCUGUAUCAACAGAGGAUUGAGCAUCA
B8: ENSG00000107863:be:win_2151|CDS|ENSG00000107863|bound_else_gene|NA|bound_elsewhere_windowed (ssRNA)
RNA: GGGAGUUCUACAGUCCGACGAUCUUUACAAGAGGCUGAAACUGAGCAAUCAGAUACUUUAGAUAAUAAAGAAGCUGUCAUCCUAAGGGAAAAACCUCCAUCUGGACGCCAGACACCGCAGCCUUUAAGGCAUCAGUCUUACAUCAACAGAGGAUUGAGCAUCA
B9: chr5:10971835:10973713:-|three_prime_utr|ENSG00000169862|control|control|control (ssRNA)
RNA: GGGAGUUCUACAGUCCGACGAUCGCAUGUGCAUGCAUACCACAAGACAUUUCUUUCUGUUUUGUUUUUUUCUCCUGCAAAUUUAGUUUGUUAAAGCCUGUUCCAUAGGAAGGCUGUGAUAACCAGUAAGGAAAUAUUAAGAGCCAACAGAGGAUUGAGCAUCA
B10: chr2:135868693:135868794:-|CDS|ENSG00000076003|msi1|FALSE|unique (ssRNA)
RNA: GGGAGUUCUACAGUCCGACGAUCCCCAGAGCUUGUGAGCGGAACUUUUCUGUGCUUGGACUGUCAGACAGUGAUCAGGGAUGUAGAACAGCAGUUCAAAUACACACAGCCAAACAUCUGCCGAAAUCCAGUUUGUGCCAACAGCAACAGAGGAUUGAGCAUCA
B11: chr2:1633824:1633925:-|3pUTR|ENSG00000130508|msi1|total|mutant (ssRNA)
RNA: GGGAGUUCUACAGUCCGACGAUCAUUUAAUUCUUUUAAAAUGAAAAAUUGGUGCUACUAUUAAAUUGCACAGUUGAAUCAUUCCGGCGCCUAAAUUGAUUUUGCCUCCCAACACCAUUUCUUUUUAAAUAAAGCAGGAUACCUCAACAGAGGAUUGAGCAUCA
B12: chr2:32415991:32416109:+|CDS|ENSG00000115760|unk|total|mutant (ssRNA)
RNA: GGGAGUUCUACAGUCCGACGAUCUGACAUUUCUACUCUUGGACACCUGGUAAUAACCACUCAGGGAGGAUAUGUAAAAAUACCCGAUCUUUCAAACUUUGAAAUUUUGGCCAAAGUGGAGCCUCCCAAAAAGGAGGGCACUGACAACAGAGGAUUGAGCAUCA
B13: ENSG00000136451:be:win_4251|3pUTR|ENSG00000136451|bound_else_gene|NA|bound_elsewhere_windowed (ssRNA)
RNA: GGGAGUUCUACAGUCCGACGAUCCUAAACAGUUGUAUUAGAUAAUCCUUAAAUCUGACAUCCAGCCUGUUACGCUCUAGGGCUCGCUGCUUGGCCUGCGUUUGCUUUUUAUUGUGUAUCCGUUCCCCUCCUACGGUGUGCUCCCAACAGAGGAUUGAGCAUCA
B14: chr8:30995801:30996592:-|three_prime_utr|ENSG00000172733|control|control|control (ssRNA)
RNA: GGGAGUUCUACAGUCCGACGAUCUUGUUUUUUUUAAUUCAUCAAGCCUUUCGUUUUCAAACCACCAUUUGUCAGCCUUGAGGUAGAGAGACAUAUAGAUUUGAAAAUACUUUCUUAAGAGAUCAUGUAACUAUAUAACUCUGACAACAGAGGAUUGAGCAUCA
B15: chr1:205657850:205659233:-|three_prime_utr|ENSG00000158715|control|control|control (ssRNA)
RNA: GGGAGUUCUACAGUCCGACGAUCACUUCCAGCACAUUGGGGUGGAGGGCCUGCCUCACUGGGUCCCAGCUCCCCGCUCCUGUUAGCCCCAUGGGGCUGCCGGGCUGGCCGCCAGUUUCUGUUGCUGCCAAAGUAAUGUGGCUCCAACAGAGGAUUGAGCAUCA
B16: chr11:35229396:35229958:+|3pUTR|ENSG00000026508|msi1|FALSE|unique (ssRNA)
RNA: GGGAGUUCUACAGUCCGACGAUCAUAUGUAUUCCUGAUCGCCAACCUUUCCCCCACCAGCUAAGGACAUUUCCCAGGGUUAAUAGGGCCUGGUCCCUGGGAGGAAAUUUGAAUGGGUCCAUUUUGCCCUUCCAUAGCCUAAUCCAACAGAGGAUUGAGCAUCA
B17: chr11:112070992:112071283:-|CDS|ENSG00000150773|control|control|control (ssRNA)
RNA: GGGAGUUCUACAGUCCGACGAUCAAUAAAAGGAAGCAUUCAAAGAAUGAAACAAAAUCUGAUGGGAAUCCAAACUGAUUCCAUAGAUUUAAGAGAAAAAAUGAGAAGGGGUAAGUUGAUGAUUGUAAAUGGAAAAUUAAACUGCAACAGAGGAUUGAGCAUCA
B18: chr8:6757792:6757893:+|3pUTR|ENSG00000155189|msi1|FALSE|unique (ssRNA)
RNA: GGGAGUUCUACAGUCCGACGAUCAUUUAUUACAACUUGACAGCUCCAAGCUCUUAUUACUAAAGUAUUUAGUAUCUUGCAGCUAGUUAAUAUUUCAUCUUUUGCUUAUUUCUACAAGUCAGUGAAAUAAAUUGUAUUUAGGAACAACAGAGGAUUGAGCAUCA
B19: chr3:81489889:81489990:-|3pUTR|ENSG00000114480|msi1|FALSE|unique (ssRNA)
RNA: GGGAGUUCUACAGUCCGACGAUCUUGGUCUAAAUUAUGAGGUACCAAGAUUGUUUCUUUGUUUCUUUUUUUCAAAUUGUGUUUAGAAAUACUGUAAUAAAUAUGCAGUAGUGAUAUAAAGAAUUAUAUCCAAGGUAAUAUAAACAACAGAGGAUUGAGCAUCA
B20: chrX:51895182:51895295:+|CDS|ENSG00000179222|unk|FALSE|unique (ssRNA)
RNA: GGGAGUUCUACAGUCCGACGAUCAGUUCACAGCCCCCAACUGCCAAUGAGAUGGCUGACAUUCAGGUUUCAGCAGCUGCCGCUAGGCCUAAGUCAGCCUUUAAAGUCCAGAAUGCCACCACAAAAGGCCCAAAUGGUGUCUAUCAACAGAGGAUUGAGCAUCA
B21: chr22:46679111:46679212:+|3pUTR|ENSG00000075240|msi1|FALSE|unique (ssRNA)
RNA: GGGAGUUCUACAGUCCGACGAUCAGGGCCCGGCAGUGCCCAAGGAUGGGUCCGGGGCCUCGGGGCCAAUGAGCGCCUCUUCCUAGGUGCUGGGAUUCAGUCCCCAAACACAGCGGGAGGGGUCCCUGGGGCAGAUGGGGCUUUCAACAGAGGAUUGAGCAUCA
B22: chr5:147393764:147393895:-|3pUTR|ENSG00000113657|msi1_unk|total|mutant (ssRNA)
RNA: GGGAGUUCUACAGUCCGACGAUCUCCAAUGUUACGCUCGCUUGCCCCGCUUUACGAAUAUUGCUUUGUUUUCUGUUUAUGCACCGCCUUGAUUUGUUUGACUCCCCUCCCCCCAUUUACAUGCAUGCAAUCAGACAGGCCACUCAACAGAGGAUUGAGCAUCA

This test has as its target T1, UNK ZnF1-6 (called full-length) (human, UniProt Q9C0B0 30-357).
T1 sequence: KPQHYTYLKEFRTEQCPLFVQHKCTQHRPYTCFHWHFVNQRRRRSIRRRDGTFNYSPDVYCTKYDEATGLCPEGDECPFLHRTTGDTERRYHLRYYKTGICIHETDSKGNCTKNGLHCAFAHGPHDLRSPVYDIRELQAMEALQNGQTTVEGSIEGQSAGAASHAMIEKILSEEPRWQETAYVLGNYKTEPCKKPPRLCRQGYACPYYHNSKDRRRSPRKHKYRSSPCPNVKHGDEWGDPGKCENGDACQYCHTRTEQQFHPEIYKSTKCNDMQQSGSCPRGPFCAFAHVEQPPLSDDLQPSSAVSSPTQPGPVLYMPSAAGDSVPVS
Description: nsRBNS (natural sequence RNA bind-n-seq); RBNS binding buffer (assumed for nsRBNS): 25 mM Tris pH 7.5, 150 mM KCl, 3 mM MgCl2, 0.01% Triton X-100, 500 ug/ml BSA, 20 U/ml SUPERase-In, 4 C; UNK is unkempt and MSI1 is Musashi-1; names of the RNAs are library labels; protein concentration not given here; high values mean tight binding.
Molecule B1 showed a binding signal of 0.745 enrichment R.

For B2, the binding signal was 0.27 enrichment R. The value for B3 was 0.87 enrichment R. The value for B4 was 0.781 enrichment R; that for B5 was 0.442 enrichment R. Then B6, with 0.515 enrichment R; and B7, with 0.786 enrichment R.

Consider B8, for which the binding signal came to 0.636 enrichment R.

B9 came in with a binding signal of 0.511 enrichment R. Then B10, with 0.852 enrichment R; and B11, with 0.761 enrichment R; and B12, with 0.504 enrichment R. The molecule B13 displayed a binding signal of 0.615 enrichment R. Then B14, with 0.67 enrichment R. The value for B15 was 0.783 enrichment R. The value for B16 was 0.772 enrichment R; that for B17 was 0.74 enrichment R. B18: the binding signal came to 0.788 enrichment R. The value for B19 was 1.8 enrichment R. Then B20, with 0.588 enrichment R. The value for B21 was 0.754 enrichment R; that for B22 was 0.884 enrichment R.
